# Laboratory results reported in article PMC4336329 (PLoS ONE, 2015).
# In all, about 310,000 compounds went through this assay and about 14,000 (4.5%) showed an effect of 50% or more. The effect is printed as a negative number. The list shows a part of the results.
# Biological target: human ether-à-go-go-related gene (hERG) potassium channel (human, UniProt Q12809)
# Assay: primary screen, population patch clamp on CHO cells stably expressing hERG
# 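Note: peak tail current of the secondary pulse compared with the same well before compound.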
# Sequence of human ether-à-go-go-related gene (hERG) potassium channel (Q12809 whole entry, looked up): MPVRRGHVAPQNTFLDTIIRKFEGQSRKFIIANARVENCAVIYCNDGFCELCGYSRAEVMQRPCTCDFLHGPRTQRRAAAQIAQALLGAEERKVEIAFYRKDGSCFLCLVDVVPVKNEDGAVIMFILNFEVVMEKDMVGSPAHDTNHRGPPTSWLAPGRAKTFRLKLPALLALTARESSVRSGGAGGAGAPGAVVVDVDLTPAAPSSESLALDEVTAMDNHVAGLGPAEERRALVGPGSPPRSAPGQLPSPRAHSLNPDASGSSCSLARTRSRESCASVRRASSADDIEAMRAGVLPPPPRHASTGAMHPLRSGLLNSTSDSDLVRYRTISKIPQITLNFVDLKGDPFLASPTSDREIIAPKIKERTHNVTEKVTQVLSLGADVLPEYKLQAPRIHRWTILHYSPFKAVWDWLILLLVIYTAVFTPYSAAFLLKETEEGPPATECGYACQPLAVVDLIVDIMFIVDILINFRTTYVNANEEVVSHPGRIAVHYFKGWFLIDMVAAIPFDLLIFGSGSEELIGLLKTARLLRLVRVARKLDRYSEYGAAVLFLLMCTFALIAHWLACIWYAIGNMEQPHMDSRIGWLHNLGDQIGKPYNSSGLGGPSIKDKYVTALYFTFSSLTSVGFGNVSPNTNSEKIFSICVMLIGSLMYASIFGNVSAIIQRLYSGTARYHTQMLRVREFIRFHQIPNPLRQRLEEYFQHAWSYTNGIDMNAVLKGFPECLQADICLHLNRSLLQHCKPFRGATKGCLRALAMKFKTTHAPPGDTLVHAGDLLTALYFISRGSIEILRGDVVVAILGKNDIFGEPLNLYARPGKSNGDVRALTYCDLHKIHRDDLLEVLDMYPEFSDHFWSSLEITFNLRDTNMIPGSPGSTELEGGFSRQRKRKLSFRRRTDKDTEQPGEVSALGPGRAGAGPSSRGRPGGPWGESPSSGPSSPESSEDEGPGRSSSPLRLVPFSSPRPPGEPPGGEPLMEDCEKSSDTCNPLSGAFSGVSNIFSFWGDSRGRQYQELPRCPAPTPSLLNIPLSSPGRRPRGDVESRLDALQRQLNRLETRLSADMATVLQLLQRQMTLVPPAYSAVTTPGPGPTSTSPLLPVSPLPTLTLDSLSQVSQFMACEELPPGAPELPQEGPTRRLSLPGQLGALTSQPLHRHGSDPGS
row,Compound,"hERG current change (%, negative = inhibition) at 10uM [%]"
1,COc1ccccc1-c1sc2cc3c(cc2c1C#Cc1ccccn1)OCO3,8.78
2,CSCc1cc(N2CCOCC2)nc(-c2ccccc2)n1,-5.59
3,O=C(Cc1cccs1)Nc1nnc(SCc2ccc(C(F)(F)F)cc2)s1,20.6
4,Cc1ccc(CN2C(=O)CCC2C(=O)NCc2ccco2)cc1 (stereo not drawn),-2.47
5,c1ccc(-c2cc(-c3nc(-c4ccccn4)no3)c3ccccc3n2)cc1,5.86
6,CCCC(=O)Oc1cccc(C2NC(=O)c3ccccc3O2)c1 (stereo not drawn),12.6
7,O=C(Nc1cccc(-c2nn[nH]n2)c1)c1cccs1,15.6
8,CCOC(=O)c1cnc2c(cnn2C)c1Oc1ccc(OC)cc1,-43
9,O=C1CC(c2ccccc2)Sc2ccccc2N1 (stereo not drawn),-29
10,Cc1[nH]nc(N)c1-c1ccccc1,22.8
11,Cn1c(=O)cc(Nc2ccc(Cl)cc2)[nH]c1=O,18.9
12,Cc1cc(C)cc(NC(=O)C2CCN(c3nc(C)cc(C)n3)CC2)c1,-3.58
13,C=C(c1ccccc1)c1ccccc1N,4.12
14,Cc1cccnc1NC(=O)CCNC(=O)c1ccc(Cl)cc1,18.3
15,CCOC(=O)c1ccccc1NC(=O)CSc1nc(N)cc(=O)[nH]1,10.1
16,COc1ccc(NC(=O)CN(C)C(=O)c2c(C)nn(Cc3ccc(C)cc3)c2Cl)cc1,9.81
17,O=S(=O)(c1cccc(-c2nc3ccccc3s2)c1)N1CCOCC1,-7.39
18,O=C(NCCn1cccn1)c1ccc(OC2CCN(CCc3ccccc3)CC2)cc1,-41.3
19,Cc1ccc(NC(=O)CSC2=NCCN2)cc1.Cl,23.4
20,CC1COC2N=C(N[N+](=O)[O-])NC2O1 (stereo not drawn),23.5
21,COc1ccc(CCn2cc(C#N)c(=O)[nH]c2=O)cc1OC,31.2
22,Cn1c(SCC(=O)N(C2CCCCC2)C2CCCCC2)nnc1-c1cccs1,-17.3
23,O=C(CSC1CS(=O)(=O)c2cc([N+](=O)[O-])ccc21)NNC(=O)c1ccc(Cl)cc1 (stereo not drawn),-74
24,CCCCn1c(CNC(=O)CCC)nc2ccccc21,-17.3
25,COc1ccccc1N(CC(=O)NC1CCCCC1)C(=O)c1csnn1,12.2
26,CCN(C(=O)CSc1nc(N)cc(=O)[nH]1)C1CCS(=O)(=O)C1 (stereo not drawn),7.22
27,CCN(CC(=O)Nc1ccccc1C(F)(F)F)C(=O)C1CSC2(C)CCC(=O)N12 (stereo not drawn),3.86
